# Laboratory results published in PubChem BioAssay AID463173 (ICCB-Longwood Screening Facility, Harvard Medical School, 2010).
# Among all 52,000 compounds or so, about 4,300 (8.3%) were called active. Cut-off read from the data, not from the text of the source: active = survival mostly below about 52% (no sharp cut-off); inactive = mostly above about 56%. Some of the results follow.
# Tested on: DeltatarO mutant
# Assay: S. aureus survival, RN4220 and DeltatarO strains – OD600, teichoic acid synthesis inhibitors, primary screen (AID 463173)
# Conditions: S. aureus RN4220 wild type/DeltatarO growth, OD600, 18 h, active compounds read low, screened at 18.75 µg/mL (by protocol)
row,SMILES,survival
1,Cc1ccc(-c2nc(CS(=O)CC(=O)N3CCN(c4cccc(Cl)c4)CC3)c(C)o2)cc1 (configuration not stated),inactive: 46%
2,Cc1ccc(C)c(Cn2c(CCCNC(=O)C3CCCCC3)nc3ccccc32)c1,inactive: 61%
3,c1ccc2c(c1)Nc1nc3ccccc3nc1N2,inactive: 85%
4,Cc1nc(-c2cccc(NC(=O)Nc3ccccc3C(F)(F)F)c2)no1,inactive: 130%
5,Cc1c(Cl)cccc1NC(=O)Cn1cc(C(=O)c2cccs2)c2ccccc21,inactive: 168%
6,O=C(CSc1nc2ccsc2c(=O)n1Cc1ccccc1Cl)NCc1ccc(F)cc1,inactive: 41%
7,CCc1ccc(-n2c(=O)c3sc4ccccc4c3n(CC(=O)N3CCCC3)c2=O)cc1,inactive: 95%
8,CCOc1ccc(C2CC(=O)Nc3cc4c(cc32)OCO4)cc1OC (configuration not stated),inactive: 120%
9,COc1ccc(-c2cc(C)no2)cc1S(=O)(=O)NCc1cccs1,inactive: 86%
10,CCc1cccc(NC(=O)CN2Cc3ccccc3C2=O)c1,inactive: 126%
11,CCOC(=O)c1c(S(=O)(=O)N2CCCC(C(=O)Nc3ccccn3)C2)c(C)n(C)c1C (configuration not stated),inactive: 89%
12,COc1cc(CNC(=O)C2CCCCN2S(=O)(=O)c2ccc(F)cc2)cc(OC)c1OC (configuration not stated),inactive: 83%
13,N#Cc1cc2cc3c(cc2nc1SCC(=O)NC1CCCCC1)OCCO3,inactive: 88%
14,CC(=O)N1CCc2c(sc3c2c(=O)n(-c2ccc(C)cc2)c(=O)n3Cc2c(F)cccc2Cl)C1,inactive: 123%
15,Cc1ccc(CNC(=O)C2CCN(S(=O)(=O)c3ccc(F)cc3)CC2)cc1,inactive: 62%
16,COc1ccc(CNC(=O)c2cc(-c3ccc(OC)cc3)nc3n[nH]c(-c4cccc([N+](=O)[O-])c4)c23)cc1,inactive: 68%
17,COC(=O)c1c(NC(=O)Cc2coc3cc(C)ccc23)sc2c1CCCC2,inactive: 62%
18,COc1ccc(CN2CCc3c(c(=O)n4ncc(C(=O)N5CCN(c6ccc(F)cc6)CC5)c4n3C)C2)cc1,inactive: 94%
19,COc1ccccc1CNC(=O)c1cccn1-c1nnc(N2CCCCC2)s1,active: 37%

row,SMILES,survival
1,COc1ccc(-c2nc(CNS(=O)(=O)c3ccc(Br)cc3)cs2)cc1,inactive: 89%
2,COC(=O)c1ccc(C2c3c(-c4ccccc4O)n[nH]c3C(=O)N2Cc2ccncc2)cc1 (configuration not stated),inactive: 90%
3,CC(C)c1nn2c(=O)cc(COC(=O)c3ccccc3NC(=O)COc3ccccc3)nc2s1,inactive: 75%
4,CC(=O)Nc1ccc(S(=O)(=O)NCCc2cn3ccsc3n2)cc1,inactive: 81%
5,CC(=O)N1CCN(C2=NC(=O)C(=C3CCCCC3)S2)CC1,inactive: 75%
6,CCOc1ccccc1NC(=O)c1c(NCc2cccs2)sc2c1CCC(C)C2 (configuration not stated),inactive: 105%
7,COC(=O)Nc1ccc(S(=O)(=O)N(CCO)CCO)cc1,inactive: 96%
8,O=C(c1ccccc1)N(Cc1nc2ccccc2c(=O)[nH]1)C1CCCC1,inactive: 70%
9,Cc1nnc(NC(=O)CSc2nccn2Cc2ccc(F)cc2)s1,active: 0%
10,O=C(CSc1nc(-c2cccc(F)c2)[nH]c1-c1ccccc1)Nc1ccc2c(c1)OCCO2,inactive: 94%
11,COc1cc(C(=O)N(CCc2ccccc2)C2CC3CCC(C2)N3C)cc(OC)c1OC (configuration not stated),inactive: 102%
12,CCC(=O)N1CCc2cc(OC)c(OC)cc2C1COc1ccccc1OC (configuration not stated),inactive: 84%
13,CCc1ccc(NC(=O)CCCc2nnc3n(CC(C)C)c(=O)c4sccc4n23)cc1,inactive: 102%
14,CC(C)CN(CC(C)C)S(=O)(=O)c1ccc(C(=O)Nc2sc3c(c2C(N)=O)CC(C)(C)NC3(C)C)cc1,inactive: 87%
15,O=C(Nc1c2c(nn1-c1ccc(Cl)cc1)CS(=O)(=O)C2)c1cccc(F)c1,inactive: 55%
16,COC(=O)C1=C(C)NC(C)=C(C(=O)OC)C1C1CC=CCC1 (configuration not stated),inactive: 101%
17,CCOC(=O)c1sc(NC(=O)CSc2nnc(Cn3nnc4ccccc43)n2C)nc1C,inactive: 94%
18,Cc1cc(-c2ccc(S(=O)(=O)Nc3ccccc3F)s2)on1,inactive: 88%
19,CC(=O)Nc1nc(SCc2ccccc2Cl)n[nH]1,inactive: 91%

row,SMILES,survival
1,O=C(Nc1ccc2oc(=O)ccc2c1)c1cccs1,inactive: 83%
2,CC(NC(=O)Cc1ccc(NC(=O)N2CCSc3ncccc32)cc1)c1ccccc1 (configuration not stated),inactive: 75%
3,CCCOc1ccc(C(=O)Nc2ccc(NC(=O)c3ccccc3)c(Br)c2)cc1,inactive: 129%
4,O=S(=O)(NCCc1ccccc1)c1ccc(S(=O)(=O)N2CCCCC2)cc1,inactive: 61%
5,COc1ccccc1NC(=O)CN1C(=O)C2(SCC(=O)N2c2ccc(F)c(F)c2)c2ccccc21 (configuration not stated),inactive: 90%
6,CCc1cc(C(=O)NCc2ccccc2)no1,inactive: 62%
7,COc1cc(NC(=O)CSc2nc(-c3ccco3)cc(C(F)(F)F)n2)cc(OC)c1OC,inactive: 54%
8,Cc1ccc(CN2COc3ccc4c(-c5ccccc5)cc(=O)oc4c3C2)cc1,inactive: 75%
9,Cc1c(C(=O)Nc2cccc(Cl)c2)oc2ccc(S(=O)(=O)N3CCCCCC3)cc12,inactive: 69%
10,Cc1cc(C)nc(-n2nc(C)c3c2N(C)C(=O)CC3c2ccc(Cl)cc2)n1 (configuration not stated),inactive: 73%
11,COc1cccc(CNC(=O)c2ccc3c(c2)nc2n3CCOC2)c1,inactive: 64%
12,CCOC(=O)CSc1nc2sc3c(c2c(=O)n1-c1ccccc1)CC(C(C)C)OC3 (configuration not stated),inactive: 96%
13,CCN(Cc1ccccc1)C(=O)CN1C(=O)COc2ccc(S(=O)(=O)NC3CCCC3)cc21,inactive: 78%
14,CCOc1ccc(CNC(=O)c2ccc(CS(=O)Cc3ccc(Cl)cc3)o2)cc1 (configuration not stated),inactive: 88%
15,O=C(CN1C(=O)COc2ccc(S(=O)(=O)NC3CCCC3)cc21)Nc1ccc(Cl)cc1,inactive: 77%
16,CCOC(=O)c1[nH]c(C)c(C(=O)NC(CC)Cc2ccccc2)c1C (configuration not stated),inactive: 78%
17,O=C(Nc1cccc(-c2cn3cccnc3n2)c1)c1cc(Br)ccc1Cl,inactive: 67%
18,Cc1oc(CSCCSCc2cc(C(=O)O)c(C)o2)cc1C(=O)O,inactive: 94%
19,COc1ccc(C(=O)Nc2cc(C)c(O)c(-c3nc4ccccc4s3)c2)cc1OC,inactive: 51%
